This note sets out measurements from the BET-seq Pho4 binding data (Le et al. 2018).

This is one part of the list. These are noisy estimates, calculated here from bound and input reads.

This assay concerns the target T1, Pho4 (S. cerevisiae) (UniProt P07270).
T1 sequence: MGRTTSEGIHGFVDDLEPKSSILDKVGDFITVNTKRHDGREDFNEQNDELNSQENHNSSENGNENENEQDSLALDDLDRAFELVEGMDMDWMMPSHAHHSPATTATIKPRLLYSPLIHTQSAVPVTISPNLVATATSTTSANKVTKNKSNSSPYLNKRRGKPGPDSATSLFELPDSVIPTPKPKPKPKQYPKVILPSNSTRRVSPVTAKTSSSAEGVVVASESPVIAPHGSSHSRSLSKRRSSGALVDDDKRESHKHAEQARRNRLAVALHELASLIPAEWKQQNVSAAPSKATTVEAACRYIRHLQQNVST
The assay is described as follows: relative binding free energy (BET-seq); higher = weaker binding. The settings on record: reference: library average.
Consider GATTCCACGTGTGGGG, for which the “relative binding free energy” value was 0.16 kcal/mol. Take ATGTGCACGTGAGCAT: the “relative binding free energy” value was 0 kcal/mol.

For the sequence AAGTTCACGTGGGGGC, the “relative binding free energy” value is 0.32 kcal/mol. With GTTTTCACGTGTGAAA the figure was 0.46 kcal/mol; with GCTTTCACGTGGGGTC, 0.2 kcal/mol; with TCAGTCACGTGTGAGT, 0.11 kcal/mol.

For the sequence TAAATCACGTGGTTTT, the “relative binding free energy” value was determined as 0.12 kcal/mol. Under GGGCACACGTGAGGGG stands 0.24 kcal/mol; under GGGTCCACGTGAGGCG, 0.28 kcal/mol; under GAGTGCACGTGATGTT, 0.22 kcal/mol. As for CGTGGCACGTGCGGCT, the “relative binding free energy” value was -0.26 kcal/mol. Under TTTAACACGTGGGGAC stands -0.04 kcal/mol. For TAAGACACGTGGTGCG, the “relative binding free energy” value was 0.03 kcal/mol.

Regarding TGTCACACGTGGAATG, the “relative binding free energy” value worked out at 0.04 kcal/mol. With AGTTTCACGTGCGAGA the figure was 0.34 kcal/mol; with TGAGTCACGTGCTCGT, 0.26 kcal/mol; with AATCTCACGTGGTGTA, 0.03 kcal/mol. For GGACGCACGTGGGGTT, the “relative binding free energy” value was -0.28 kcal/mol. In the case of CATGCCACGTGTTTTT, the “relative binding free energy” value is 0 kcal/mol. With GTTGGCACGTGATTCG the figure was -0.07 kcal/mol; with AATGGCACGTGCTGGG, -0.16 kcal/mol.

Turning to CGTTGCACGTGGCGGT, the “relative binding free energy” value was -0.15 kcal/mol.

For TCGTTCACGTGGGTTA, the “relative binding free energy” value worked out at 0.11 kcal/mol.

Turning to TAAATCACGTGTGTAG, the “relative binding free energy” value was determined as 0.18 kcal/mol. With CGAATCACGTGAGGTT the figure was 0.39 kcal/mol. With TTTGTCACGTGTTCAC the figure was 0.23 kcal/mol; with AATTTCACGTGGGGGG, 0.26 kcal/mol.

As for CGTCGCACGTGCGGGG, the “relative binding free energy” value was -0.09 kcal/mol.

For AATTACACGTGTGGTA, the “relative binding free energy” value turned out to be 0.03 kcal/mol. Turning to AATTTCACGTGGGGCG, the “relative binding free energy” value came to 0.24 kcal/mol. Under AGGGGCACGTGAAGTA stands 0.16 kcal/mol. Regarding TTTATCACGTGCGTCG, the “relative binding free energy” value is 0.07 kcal/mol.

TCTCGCACGTGGGTGT: the “relative binding free energy” value was -0.26 kcal/mol. Under TGAAGCACGTGAAAGG stands 0.21 kcal/mol. Turning to TGGTACACGTGGTAGC, the “relative binding free energy” value was determined as 0.1 kcal/mol. With GGGGGCACGTGGAGAA the figure was 0.01 kcal/mol; with CTAGTCACGTGAGTTG, 0.19 kcal/mol. GGGTGCACGTGGTGAT: the “relative binding free energy” value worked out at 0 kcal/mol. Take GGCGGCACGTGACGTG: the “relative binding free energy” value is 0.02 kcal/mol. Under GTGCGCACGTGTTTGT stands -0.08 kcal/mol; under TGGGGCACGTGCGGAG, -0.23 kcal/mol; under TAATTCACGTGTTTAG, 0.14 kcal/mol. For the sequence GACGGCACGTGTGTGT, the “relative binding free energy” value is -0.03 kcal/mol. Turning to AATTCCACGTGGTAGT, the “relative binding free energy” value was -0.03 kcal/mol.

As to AGGAACACGTGTTTGG, the “relative binding free energy” value is -0.01 kcal/mol.

On to TTGTTCACGTGAGTAC, for which the “relative binding free energy” value is 0.41 kcal/mol. With TTCTTCACGTGTGTTT the figure was 0.33 kcal/mol. For the sequence TGCTACACGTGTTGGG, the “relative binding free energy” value was -0.02 kcal/mol. With GGTAACACGTGTAATT, the “relative binding free energy” value was 0.12 kcal/mol. With AGTTGCACGTGGTCGG the figure was -0.06 kcal/mol; with AAATTCACGTGGGATT, 0.26 kcal/mol. Under GTGTACACGTGTTAGA stands -0.07 kcal/mol. Regarding TGCTACACGTGCTGGA, the “relative binding free energy” value came out at 0.15 kcal/mol.

Consider TGTTGCACGTGGCAGA, for which the “relative binding free energy” value was -0.07 kcal/mol. Under TGCAACACGTGGGTTT stands -0.12 kcal/mol. With GCCTGCACGTGTGAGG the figure was 0.18 kcal/mol; with TGGTTCACGTGTTACT, 0.27 kcal/mol; with GCAAGCACGTGGGGTG, -0.22 kcal/mol.

On to GTTGGCACGTGCGTTC, for which the “relative binding free energy” value is -0.13 kcal/mol. With GAGTGCACGTGTTTAA the figure was 0.02 kcal/mol; with TGAGGCACGTGCAGTT, -0.2 kcal/mol. Under CAGGTCACGTGGGTTG stands -0.02 kcal/mol. Regarding TATGGCACGTGACATG, the “relative binding free energy” value was found to be 0.01 kcal/mol.

GGTAACACGTGGTCAG: the “relative binding free energy” value was -0.08 kcal/mol. Under TTTTGCACGTGTTTAG stands 0.09 kcal/mol. On to TCAGGCACGTGTTAGG, for which the “relative binding free energy” value is 0 kcal/mol. Under GTTGACACGTGATAGG stands 0.14 kcal/mol; under TTGCTCACGTGCGTTT, 0.05 kcal/mol; under GTTGCCACGTGTGTGT, 0 kcal/mol. As for GGCTGCACGTGGATGC, the “relative binding free energy” value was determined as 0.06 kcal/mol. With GGCTCCACGTGTTTTG the figure was 0.23 kcal/mol; with TCGGTCACGTGATGGC, 0.3 kcal/mol. With TGGGGCACGTGGAGAA the figure was -0.04 kcal/mol; with CTTTTCACGTGGGTGT, 0.21 kcal/mol. Under TGTGGCACGTGCTGAG stands -0.23 kcal/mol. Regarding ATTGGCACGTGTCATG, the “relative binding free energy” value was -0.12 kcal/mol. With GGGTACACGTGGCTGT the figure was 0.01 kcal/mol; with GCTATCACGTGTGTTG, 0.16 kcal/mol. On to CTCGGCACGTGCGGTG, for which the “relative binding free energy” value was -0.21 kcal/mol. For AATGTCACGTGGACGG, the “relative binding free energy” value stood at 0.17 kcal/mol. For TTCTTCACGTGATTGA, the “relative binding free energy” value is 0.32 kcal/mol. For TTGTGCACGTGCTCGT, the “relative binding free energy” value is -0.04 kcal/mol. With CTGGTCACGTGTGCTG the figure was 0.07 kcal/mol. Consider TGTGACACGTGTTAAA, for which the “relative binding free energy” value came out at 0.05 kcal/mol. For GTTTGCACGTGTGGAT, the “relative binding free energy” value was determined as 0.13 kcal/mol. As to TAGCGCACGTGTTTAT, the “relative binding free energy” value is -0.09 kcal/mol. With AATGGCACGTGGTGAA the figure was -0.1 kcal/mol; with AGGTCCACGTGGGTTG, -0.13 kcal/mol; with GCGGTCACGTGGAGGA, 0.05 kcal/mol. For the sequence CGCCTCACGTGGGGGG, the “relative binding free energy” value was found to be 0.01 kcal/mol. Under GTCTTCACGTGCTATT stands 0.46 kcal/mol; under AGGGGCACGTGGAAAA, -0.1 kcal/mol; under CTATGCACGTGTGATG, -0.04 kcal/mol. Regarding TATATCACGTGGTTCT, the “relative binding free energy” value stood at 0.01 kcal/mol.

Take TAAGGCACGTGATGGT: the “relative binding free energy” value turned out to be 0.03 kcal/mol. Under TAATGCACGTGTGGCT stands 0.03 kcal/mol.

On to GTATTCACGTGATTAT, for which the “relative binding free energy” value stood at 0.24 kcal/mol. Under CATGTCACGTGGCTTG stands 0.21 kcal/mol; under TGTGTCACGTGTCGAG, 0.07 kcal/mol; under TGGGTCACGTGCTGTG, 0.17 kcal/mol. With TTTGCCACGTGAGGAA the figure was 0.2 kcal/mol; with ATTCTCACGTGCGGGG, 0.38 kcal/mol; with AGAGGCACGTGTATTT, -0.06 kcal/mol.

For the sequence TGATGCACGTGTAGAG, the “relative binding free energy” value worked out at 0.03 kcal/mol. Consider TCGTGCACGTGTGTAG, for which the “relative binding free energy” value was -0.15 kcal/mol. For the sequence GGTTGCACGTGTGACG, the “relative binding free energy” value was determined as 0.08 kcal/mol. Under TAGATCACGTGGAGGT stands 0.1 kcal/mol; under TATGTCACGTGAGAGA, 0.15 kcal/mol. Under GATTGCACGTGGAGCG stands 0.07 kcal/mol; under ATGCGCACGTGGTTGT, -0.12 kcal/mol. With CGTTACACGTGTGTGA the figure was 0.21 kcal/mol. For the sequence TTCGTCACGTGGGGAG, the “relative binding free energy” value is -0.13 kcal/mol. TTGTTCACGTGGTGGT: the “relative binding free energy” value was found to be 0.26 kcal/mol.

For TGTCGCACGTGTAGGG, the “relative binding free energy” value is -0.03 kcal/mol. As for TTTGTCACGTGCTCTT, the “relative binding free energy” value was -0.04 kcal/mol. For TGTCGCACGTGAGCTG, the “relative binding free energy” value was 0.14 kcal/mol. For the sequence GTCTGCACGTGCATGG, the “relative binding free energy” value is 0.05 kcal/mol. With TTGGACACGTGTGTGG the figure was 0.09 kcal/mol. As to GCGGGCACGTGGACGG, the “relative binding free energy” value was -0.12 kcal/mol. For TGAAACACGTGAATTG, the “relative binding free energy” value was 0.3 kcal/mol. With TAGATCACGTGGGGCA the figure was -0.04 kcal/mol; with GTGGTCACGTGTTTTC, 0.26 kcal/mol; with AGTGCCACGTGGGGGG, -0.26 kcal/mol. For the sequence TGTATCACGTGGTGTA, the “relative binding free energy” value was determined as 0.12 kcal/mol. CGCGGCACGTGAGGTG: the “relative binding free energy” value is 0.13 kcal/mol. With TGGAGCACGTGAAGCG the figure was 0.15 kcal/mol. For AATAGCACGTGATGTA, the “relative binding free energy” value was -0.04 kcal/mol. Under GGTGCCACGTGGGAAG stands -0.04 kcal/mol; under TTGAACACGTGTATAG, 0 kcal/mol. With TTTACCACGTGATTAT the figure was 0.13 kcal/mol; with CGATGCACGTGGTGCG, -0.14 kcal/mol. As to TGGGGCACGTGACTTA, the “relative binding free energy” value was determined as 0.06 kcal/mol. Under TGATTCACGTGACAGT stands 0.41 kcal/mol; under GGGGTCACGTGGAGGC, 0.16 kcal/mol. Take TAGCTCACGTGTTAGT: the “relative binding free energy” value worked out at 0.3 kcal/mol.

As for TTGGTCACGTGGATCT, the “relative binding free energy” value was 0.2 kcal/mol. With CTTGGCACGTGGAGCG the figure was -0.12 kcal/mol. Under GGGGACACGTGTACGT stands 0.06 kcal/mol; under TAATTCACGTGAACGG, 0.47 kcal/mol; under GGTCACACGTGTGTAA, 0.19 kcal/mol. ATTAGCACGTGCAGGT: the “relative binding free energy” value is -0.14 kcal/mol. With AGTTGCACGTGAATGC the figure was 0.33 kcal/mol.

TTATTCACGTGGGCGC: the “relative binding free energy” value is 0.14 kcal/mol. With TAGGTCACGTGACATG the figure was 0.22 kcal/mol. Turning to GTAATCACGTGGGGTG, the “relative binding free energy” value was -0.03 kcal/mol. With TAGAGCACGTGAAAGT the figure was 0.27 kcal/mol.
